Drawing on article PMC12820563, “FoxP3 forms a head-to-head dimer in vivo and stabilizes its multimerization on adjacent microsatellites”, this text covers binding signal for 31 sequences.

The other results are listed elsewhere or left out.

This assay addresses T1, MBP-FoxP1dN (Mus musculus, UniProt P58462 326-579).
T1 sequence: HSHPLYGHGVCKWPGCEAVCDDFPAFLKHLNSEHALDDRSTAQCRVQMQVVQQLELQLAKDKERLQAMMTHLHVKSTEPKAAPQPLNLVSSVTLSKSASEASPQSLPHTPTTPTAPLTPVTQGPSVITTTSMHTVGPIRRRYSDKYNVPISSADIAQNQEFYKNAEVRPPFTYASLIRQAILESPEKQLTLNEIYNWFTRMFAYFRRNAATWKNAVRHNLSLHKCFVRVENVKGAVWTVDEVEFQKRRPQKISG
Description: PD-seq (MBP pull-down with sequencing); 20 mM Tris-HCl pH 7.5, 100 mM NaCl, 1.5 mM MgCl2, 0.4 uM protein, 0.1 uM dsDNA library, 30 min, room temperature, amylose pull-down; high values mean tight binding. The conditions noted are these: protein: recombinant; tags: His6-MBP; chain copies: 2; dsDNA, one strand shown. In a few lines:
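E. coli-expressed mouse FoxP3 or FoxP1 fragment, N-terminus removed and tagged with His6-MBP, was used at 0.4 µM against 0.1 µM of a Klenow-filled degenerate double-stranded DNA library. After 30 min at room temperature in Tris pH 7.5 buffer with NaCl and MgCl2, complexes were pulled down on amylose resin and washed three times. Binding is pull-down over input reads-per-million enrichment from pooled replicates of the proteinase K-released, PCR-barcoded, Illumina-sequenced DNA.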
Take “GATGATTGTTCTCCCAGCTGATGAATTGCCAACGTCGAGTAAACAAATTTTCCTAATCTTTCTGTTCAAGCGCCATCTAC”: the binding signal was 0.91 RPM ratio (pull-down/input).

Regarding “GATGATTGTTCTCCCAGCTGATGAATTAAGAGAGTCGAGTAAACAAATTTTCCTAATCTTTCTGTTCAAGCGCCATCTAC”, the binding signal is 0.756 RPM ratio (pull-down/input).

Turning to “GATGATTGTTCTCCCAGCTGATGAATTGGATTAGTCGAGTAAACAAATTTTCCTAATCTTTCTGTTCAAGCGCCATCTAC”, the binding signal was 0.807 RPM ratio (pull-down/input).

Take “GATGATTGTTCTCCCAGCTGATGAATTGCCCGTATCGAGTAAACAAATTTTCCTAATCTTTCTGTTCAAGCGCCATCTAC”: the binding signal is 0.945 RPM ratio (pull-down/input).

Take “GATGATTGTTCTCCCAGCTGATGAATTTAAGGTTTCGAGTAAACAAATTTTCCTAATCTTTCTGTTCAAGCGCCATCTAC”: the binding signal is 0.852 RPM ratio (pull-down/input).

For “GATGATTGTTCTCCCAGCTGATGAATTCACGCGGTCGAGTAAACAAATTTTCCTAATCTTTCTGTTCAAGCGCCATCTAC”, the binding signal was 0.873 RPM ratio (pull-down/input).

For “GATGATTGTTCTCCCAGCTGATGAATTACTCGTGTCGAGTAAACAAATTTTCCTAATCTTTCTGTTCAAGCGCCATCTAC”, the binding signal is 0.98 RPM ratio (pull-down/input).

Take “GATGATTGTTCTCCCAGCTGATGAATTCTCTAGATCGAGTAAACAAATTTTCCTAATCTTTCTGTTCAAGCGCCATCTAC”: the binding signal is 0.938 RPM ratio (pull-down/input).

With “GATGATTGTTCTCCCAGCTGATGAATTTTACCGTTCGAGTAAACAAATTTTCCTAATCTTTCTGTTCAAGCGCCATCTAC”, the binding signal was 0.867 RPM ratio (pull-down/input).

As for “GATGATTGTTCTCCCAGCTGATGAATTAGGTTCATCGAGTAAACAAATTTTCCTAATCTTTCTGTTCAAGCGCCATCTAC”, the binding signal was 0.921 RPM ratio (pull-down/input).

For the sequence “GATGATTGTTCTCCCAGCTGATGAATTACCAATGTCGAGTAAACAAATTTTCCTAATCTTTCTGTTCAAGCGCCATCTAC”, the binding signal is 1.06 RPM ratio (pull-down/input).

With “GATGATTGTTCTCCCAGCTGATGAATTGGGCTACTCGAGTAAACAAATTTTCCTAATCTTTCTGTTCAAGCGCCATCTAC”, the binding signal was 0.851 RPM ratio (pull-down/input).

Consider “GATGATTGTTCTCCCAGCTGATGAATTCCCCATATCGAGTAAACAAATTTTCCTAATCTTTCTGTTCAAGCGCCATCTAC”, for which the binding signal is 0.898 RPM ratio (pull-down/input).

On to “GATGATTGTTCTCCCAGCTGATGAATTCCGAAATTCGAGTAAACAAATTTTCCTAATCTTTCTGTTCAAGCGCCATCTAC”, for which the binding signal was 0.838 RPM ratio (pull-down/input).

Turning to “GATGATTGTTCTCCCAGCTGATGAATTTGTCTCGTCGAGTAAACAAATTTTCCTAATCTTTCTGTTCAAGCGCCATCTAC”, the binding signal is 0.937 RPM ratio (pull-down/input).

As for “GATGATTGTTCTCCCAGCTGATGAATTAGTACAATCGAGTAAACAAATTTTCCTAATCTTTCTGTTCAAGCGCCATCTAC”, the binding signal was 1.42 RPM ratio (pull-down/input).

On to “GATGATTGTTCTCCCAGCTGATGAATTGGTTTCTTCGAGTAAACAAATTTTCCTAATCTTTCTGTTCAAGCGCCATCTAC”, for which the binding signal is 1.03 RPM ratio (pull-down/input).

Regarding “GATGATTGTTCTCCCAGCTGATGAATTTCCAAGCTCGAGTAAACAAATTTTCCTAATCTTTCTGTTCAAGCGCCATCTAC”, the binding signal is 0.813 RPM ratio (pull-down/input).

For the sequence “GATGATTGTTCTCCCAGCTGATGAATTAGATCGATCGAGTAAACAAATTTTCCTAATCTTTCTGTTCAAGCGCCATCTAC”, the binding signal was 0.916 RPM ratio (pull-down/input).

As for “GATGATTGTTCTCCCAGCTGATGAATTAAAGGTCTCGAGTAAACAAATTTTCCTAATCTTTCTGTTCAAGCGCCATCTAC”, the binding signal is 0.774 RPM ratio (pull-down/input).

On to “GATGATTGTTCTCCCAGCTGATGAATTCGTTTCTTCGAGTAAACAAATTTTCCTAATCTTTCTGTTCAAGCGCCATCTAC”, for which the binding signal was 0.97 RPM ratio (pull-down/input).

In the case of “GATGATTGTTCTCCCAGCTGATGAATTTATTGGATCGAGTAAACAAATTTTCCTAATCTTTCTGTTCAAGCGCCATCTAC”, the binding signal was 0.91 RPM ratio (pull-down/input).

Regarding “GATGATTGTTCTCCCAGCTGATGAATTCACGCATTCGAGTAAACAAATTTTCCTAATCTTTCTGTTCAAGCGCCATCTAC”, the binding signal was 1.3 RPM ratio (pull-down/input).

With “GATGATTGTTCTCCCAGCTGATGAATTCCTACCGTCGAGTAAACAAATTTTCCTAATCTTTCTGTTCAAGCGCCATCTAC”, the binding signal was 0.731 RPM ratio (pull-down/input).

As to “GATGATTGTTCTCCCAGCTGATGAATTAATCCCCTCGAGTAAACAAATTTTCCTAATCTTTCTGTTCAAGCGCCATCTAC”, the binding signal was 0.94 RPM ratio (pull-down/input).

In the case of “GATGATTGTTCTCCCAGCTGATGAATTATTCTGGTCGAGTAAACAAATTTTCCTAATCTTTCTGTTCAAGCGCCATCTAC”, the binding signal is 1.04 RPM ratio (pull-down/input).

On to “GATGATTGTTCTCCCAGCTGATGAATTAGAGTACTCGAGTAAACAAATTTTCCTAATCTTTCTGTTCAAGCGCCATCTAC”, for which the binding signal is 0.976 RPM ratio (pull-down/input).

Regarding “GATGATTGTTCTCCCAGCTGATGAATTCGGAGTCTCGAGTAAACAAATTTTCCTAATCTTTCTGTTCAAGCGCCATCTAC”, the binding signal was 0.77 RPM ratio (pull-down/input).

“GATGATTGTTCTCCCAGCTGATGAATTTATTTGTTCGAGTAAACAAATTTTCCTAATCTTTCTGTTCAAGCGCCATCTAC”: the binding signal is 2.15 RPM ratio (pull-down/input).

As to “GATGATTGTTCTCCCAGCTGATGAATTTTCAGGATCGAGTAAACAAATTTTCCTAATCTTTCTGTTCAAGCGCCATCTAC”, the binding signal was 0.888 RPM ratio (pull-down/input).

As for “GATGATTGTTCTCCCAGCTGATGAATTAATCTCATCGAGTAAACAAATTTTCCTAATCTTTCTGTTCAAGCGCCATCTAC”, the binding signal was 0.98 RPM ratio (pull-down/input).
